Measured values reported in PubChem BioAssay AID2546 (National Center for Advancing Translational Sciences (NCATS), 2010).
The campaign covered roughly 310,000 compounds. About 11,000 (3.5%) were called active. Roughly 8% stayed inconclusive and do not appear here. Calls follow the shape of the dose curve; as a rule, active = well fitted inhibition curve with a large enough effect; inconclusive = small, poorly fitted or top-dose-only effect, or effect the other way; inactive = flat fitted curve, though single readings scatter. The entries are a selection whose mix differs from that of the whole data set.

experiment: VP16 counterscreen qHTS for inhibitors of ROR gamma transcriptional activity; conditions: Drosophila S2 Gal4-VP16 UAS-luciferase, luminescence, 20 h; series mostly up to 53.6 µM; activity, negative = inhibition: at the top concentration;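 also: Gal4-VP16 expression switched on by copper sulfate through the metallothionein promoter; nearly all actives have a fitted effect of over 50% in size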
% is scaled to controls: 0 for no effect and ±100 for the full control effect; potency is read from the fitted curve at half-maximal effect.

Compound | activity, negative = inhibition | Potency
C=Cc1c(C)c2cc3[nH]c(cc4nc(cc5nc(cc1[nH]2)C(C)=C5CCC(=O)O)C(CCC(=O)O)=C4C)c(C)c3C=C | inactive: 0.107% | 
COC(=O)[C@H](C)[C@@H]1C[C@@]1(C)[C@@H](NC(=O)OCc1ccccc1)c1ccccc1 |  | inactive
COc1ccc(-c2cc(C(F)F)nc(-n3nc(C)cc3C)n2)cc1 |  | active: 1.41 µM
COc1ccc(S(=O)(=O)N2c3ccc(Cl)cc3[C@](O)(c3ccccc3Cl)[C@@H]2C(=O)N2CCC[C@H]2C(N)=O)cc1OC | inactive: -7.22% | 
O=C(Nc1ccccc1Cl)/C(Cl)=C(\Cl)S(=O)c1ccccc1 (stereo not given) |  | active: 0.794 µM
CCO[C@H]1OC(C(=O)N2CCOCC2)=C[C@@H](c2ccc(Br)cc2)[C@@H]1CCCO | inactive: 1.5% | 
CN(C)CCn1c(NC(=O)c2ccc(Cl)cc2)nc2ccccc21 |  | active: 1.41 µM
Cn1nnnc1SCC1=C(C(=O)O)N2C(=O)[C@@H](NC(=O)[C@H](O)c3ccccc3)[C@H]2SC1 | inactive: -0.928% | 
C=C/C1=C/Cc2ccccc2[C@H](C[N+](=O)[O-])C(C(=O)OC)(C(=O)OC)C1 | inactive: 3.13% | 
COc1ccc2c(c1)C(=O)[C@@H](O)[C@H](c1ccc(OC)c(Br)c1)O2 | inactive: -14.1% | 
COc1ccc2c(=O)c(-c3ccc4c(c3)OCO4)coc2c1 | inactive: -26.6% | 
O=C1/C(=C/c2ccc(O)c(O)c2)Oc2cc(O)ccc21 | inactive: -4.92% | 
COc1ccc(C2Oc3ccccc3C3=C2C(c2cccs2)n2ncnc2N3)cc1 (stereo not given) |  | active: 2.51 µM
O=C(N/C(=C\c1ccco1)C(=O)N1CCCC1)c1cccs1 | inactive: 15.5% [at 0.365 µM] | 
N#C/C(=C\c1ccc(N2CCOCC2)o1)c1nc2ccccc2[nH]1 | inactive: 0% | 
COC(=O)[C@H](C)[C@H]1C[C@]1(C)[C@H](NC(=O)OCc1ccccc1)c1ccccc1 | inactive: 9.43% | 
COc1ccccc1/C=C/C(=O)NC(=S)N1CCOCC1 |  | active: 8.91 µM
COC1=C(OC)C(=O)C(CCCCCCCCCCO)=C(C)C1=O | inactive: 4.38% | 
CCS(=O)(=O)N1Cc2ccccc2CC1C(=O)Nc1nc2ccc(F)cc2s1 (stereo not given) |  | active: 11.2 µM
CCCCc1ccc(/C=C2\C(=O)ON=C2c2ccccc2)s1 | inactive: -11.7% | 
COc1ccc(CCN2C(=O)C3C4C=CC(C3C2=O)C2C(=O)N(CCc3ccc(OC)c(OC)c3)C(=O)C42)cc1OC (stereo not given) |  | active: 8.91 µM
O=S(=O)(c1ccccc1)N1CCN(c2cc(-c3ccccc3)nc3ncnn23)CC1 |  | active: 5.62 µM
CCOC(=O)/C(C#N)=C\c1cc(C)n(-c2ccccc2)c1C | inactive: -22.6% | 

Compound | activity, negative = inhibition | Potency
O=C(NC(=S)NCCc1ccccc1)C1CCCCC1 |  | active: 3.98 µM
CCCC1CC(C(=O)NC(C(C)Cl)C2OC(SC)C(O)C(O)C2O)N(C)C1 (stereo not given) | inactive: -7.26% | 
CN1CCN(CC/C=C2/c3ccccc3Sc3ccc(S(=O)(=O)N(C)C)cc32)CC1 | inactive: 9.96% | 
C=CCOC(=O)/C(=C\c1cccc2ccccc12)NC(=O)c1ccccc1 | inactive: 4.37% | 
O=C(N/N=C/C=C/c1ccco1)c1cccnc1 | inactive: 12.5% | 
CC[C@H]1OC(=O)[C@H](C)[C@@H](O[C@H]2C[C@@](C)(OC)[C@@H](O)[C@H](C)O2)[C@H](C)[C@@H](O[C@@H]2O[C@H](C)C[C@H](N(C)C)[C@H]2O)[C@](C)(O)C[C@@H](C)C(=O)[C@H](C)[C@@H](O)[C@]1(C)O | inactive: -2.27% | 
COC(C[C@@H](O)CC(=O)[C@@H](C)OCc1ccccc1)OC | inactive: -0.47% | 
CCOC(=O)/C(C#N)=C/c1c[nH]c2ccccc12 | inactive: 14.8% | 
COC(=O)c1sccc1NC(=O)/C=C\c1ccc(Cl)cc1Cl | inactive: -3.03% | 
Fc1ccc(SCCc2ccccn2)cc1 | inactive: 4.25% | 
Cc1nc(CS(=O)(=O)c2ccc(Cl)cc2)cc(Sc2ccc(Cl)cc2)n1 |  | active: 11.2 µM
NC(=O)CC[C@@H]1NC(=O)[C@H](Cc2ccccc2)NC(=O)[C@H](Cc2ccc(O)cc2)NC(=O)[C@@H](N)CSSC[C@@H](C(=O)N2CCC[C@H]2C(=O)N[C@@H](CCCN=C(N)N)C(=O)NCC(N)=O)NC(=O)[C@H](CC(N)=O)NC1=O |  | inactive
C#CCOc1c(Br)cc(/C=N\NC(=O)CN2CCOCC2)cc1OCC |  | active: 35.5 µM
COc1ccc(N=C2NC(=O)/C(=C\c3ccco3)S2)cc1 | inactive: -5.17% [at 10 µM] | 
Cc1ccc(C(C)C)cc2c(C)ccc1-2 | inactive: 0.89% | 
Cc1ccc(/C=N/NC(=O)c2c(-c3ccccc3)noc2C)c(O)c1 |  | active: 3.16 µM
NNC(=O)[C@@H]1C[C@@H]1c1ccccc1 | inactive: -4.5% | 
O=C(Nc1cccc(C(F)(F)F)c1)C1CCN(S(=O)(=O)c2ccc(N3CCCC3=O)cc2)CC1 |  | active: 12.6 µM
CC(C)[C@H](NC(=O)N1CCn2c1nc1ccccc12)C(=O)N[C@@H](C(=O)O)c1ccccc1 | inactive: 2.58% | 
CSC(SC)=C(C#N)C(=O)c1ccccc1 |  | active: 11.2 µM
Cc1ccc(S(=O)(=O)N(C)C)cc1NC(=S)NC12CC3CC(CC(C3)C1)C2 |  | active: 5.62 µM
COc1ccc2c(c1)O[C@@H](c1ccc3c(c1)OCO3)[C@H](OC(=O)N[C@H](C)C1CCCCC1)C2=O | inactive: -14.7% | 
